Experimental data taken from the supplement of paper PMC8728848.
Some of the results follow.

What was measured:
Assay in all cases: glycan array binding signal (z-score within array); higher = stronger binding
Settings in all cases: glycan notation: IUPAC condensed, linker removed
[1] = biological target: Fuc(a1-2)Gal
In short: (§1)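 The binding signal is a Z-score computed within each array. Data were drawn from 3228 arrays in the Consortium for Functional Glycomics database, restricted to those with a known protein sequence. Scores were averaged over arrays of the same protein sequence at different concentrations or buffers, and over linkers, and negative values can be taken as non-binding.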

[2] = biological target: Fuc(a1-2)Gal(b1-3)GalNAc
In short: as §1

[3] = biological target: Fuc(a1-2)Gal(b1-3)GalNAc(a1-3)[Fuc(a1-2)]Gal(b1-4)Glc
In short: as §1

[4] = biological target: Fuc(a1-2)Gal(b1-3)GalNAc(a1-3)[Fuc(a1-2)]Gal(b1-4)GlcNAc
In short: as §1

[5] = biological target: Fuc(a1-2)Gal(b1-3)GalNAc(b1-3)Gal
In short: as §1

[6] = biological target: Fuc(a1-2)Gal(b1-3)GalNAc(b1-3)Gal(a1-4)Gal(b1-4)Glc
In short: as §1

[7] = biological target: Fuc(a1-2)Gal(b1-3)GalNAc(b1-4)[Neu5Ac(a2-3)]Gal(b1-4)Glc
In short: as §1

[8] = biological target: Fuc(a1-2)Gal(b1-3)GlcNAc
In short: as §1

[9] = biological target: Fuc(a1-2)Gal(b1-3)GlcNAc(b1-2)Man(a1-3)[Fuc(a1-2)Gal(b1-3)GlcNAc(b1-2)Man(a1-6)]Man(b1-4)GlcNAc(b1-4)GlcNAc
In short: as §1

[10] = biological target: Fuc(a1-2)Gal(b1-3)GlcNAc(b1-2)Man(a1-3)[Fuc(a1-2)Gal(b1-3)GlcNAc(b1-2)Man(a1-6)]Man(b1-4)GlcNAc(b1-4)[Fuc(a1-6)]GlcNAc
In short: as §1

[11] = biological target: Fuc(a1-2)Gal(b1-3)GlcNAc(b1-3)Gal(b1-4)Glc
In short: as §1

[12] = biological target: Fuc(a1-2)Gal(b1-3)GlcNAc(b1-3)GalNAc
In short: as §1

[13] = biological target: Fuc(a1-2)Gal(b1-3)GlcNAc(b1-3)[Fuc(a1-2)Gal(b1-3)GlcNAc(b1-6)]GalNAc
In short: as §1

[14] = biological target: Fuc(a1-2)Gal(b1-3)GlcNAc(b1-3)[Gal(b1-4)GlcNAc(b1-6)]Gal(b1-4)Glc
In short: as §1

[15] = biological target: Fuc(a1-2)Gal(b1-3)GlcNAc(b1-3)[Neu5Ac(a2-6)Gal(b1-4)GlcNAc(b1-6)]Gal(b1-4)Glc
In short: as §1

[16] = biological target: Fuc(a1-2)Gal(b1-3)GlcNAc6S
In short: as §1

[17] = biological target: Fuc(a1-2)Gal(b1-3)[Fuc(a1-4)]GlcNAc
In short: as §1

[18] = biological target: Fuc(a1-2)Gal(b1-3)[Fuc(a1-4)]GlcNAc(b1-2)Man(a1-3)[Fuc(a1-2)Gal(b1-3)[Fuc(a1-4)]GlcNAc(b1-2)Man(a1-3)]Man(b1-4)GlcNAc(b1-4)GlcNAc
In short: as §1

[19] = biological target: Fuc(a1-2)Gal(b1-3)[Fuc(a1-4)]GlcNAc(b1-2)Man(a1-3)[Fuc(a1-2)Gal(b1-3)[Fuc(a1-4)]GlcNAc(b1-2)Man(a1-6)]Man(b1-4)GlcNAc(b1-4)[Fuc(a1-6)]GlcNAc(b1-4)[Fuc(a1-6)]GlcNAc
In short: as §1

[20] = biological target: Fuc(a1-2)Gal(b1-3)[Fuc(a1-4)]GlcNAc(b1-3)[Fuc(a1-3)[Gal(b1-4)]GlcNAc(b1-6)]Gal(b1-4)Glc
In short: as §1

[21] = biological target: Fuc(a1-2)Gal(b1-3)[Fuc(a1-4)]GlcNAc(b1-3)[Gal(b1-4)GlcNAc(b1-6)]Gal(b1-4)Glc
In short: as §1

[22] = biological target: Fuc(a1-2)Gal(b1-4)Fuc(a1-3)]GlcNAc(b1-2)Man(a1-3)[Fuc(a1-2)Gal(b1-4)[Fuc(a1-3)]GlcNAc(b1-2)Man(a1-6)]Man(b1-4)GlcNAc(b1-4)GlcNAc
In short: as §1

[23] = biological target: Fuc(a1-2)Gal(b1-4)Glc
In short: as §1

[24] = biological target: Fuc(a1-2)Gal(b1-4)Glc6S
In short: as §1

[25] = biological target: Fuc(a1-2)Gal(b1-4)GlcNAc
In short: as §1

[26] = biological target: Fuc(a1-2)Gal(b1-4)GlcNAc(b1-2)Man
In short: as §1

[27] = biological target: Fuc(a1-2)Gal(b1-4)GlcNAc(b1-2)Man(a1-3)[Fuc(a1-2)Gal(b1-4)GlcNAc(b1-2)Man(a1-6)]Man(b1-4)GlcNAc(b1-4)GlcNAc
In short: as §1

[28] = biological target: Fuc(a1-2)Gal(b1-4)GlcNAc(b1-2)Man(a1-3)[Fuc(a1-2)Gal(b1-4)GlcNAc(b1-2)Man(a1-6)]Man(b1-4)GlcNAc(b1-4)[Fuc(a1-6)]GlcNAc
In short: as §1

[29] = biological target: Fuc(a1-2)Gal(b1-4)GlcNAc(b1-2)[Fuc(a1-2)Gal(b1-4)GlcNAc(b1-4)]Man(a1-3)[Fuc(a1-2)Gal(b1-4)GlcNAc(b1-2)Man(a1-6)]Man(b1-4)GlcNAc(b1-4)GlcNAc
In short: as §1

[30] = biological target: Fuc(a1-2)Gal(b1-4)GlcNAc(b1-3)Gal(b1-4)GlcNAc
In short: as §1

[31] = biological target: Fuc(a1-2)Gal(b1-4)GlcNAc(b1-3)Gal(b1-4)GlcNAc(b1-2)Man(a1-3)[Fuc(a1-2)Gal(b1-4)GlcNAc(b1-3)Gal(b1-4)GlcNAc(b1-2)Man(a1-6)]Man(b1-4)GlcNAc(b1-4)GlcNAc
In short: as §1

[32] = biological target: Fuc(a1-2)Gal(b1-4)GlcNAc(b1-3)Gal(b1-4)GlcNAc(b1-3)Gal(b1-4)GlcNAc
In short: as §1

[33] = biological target: Fuc(a1-2)Gal(b1-4)GlcNAc(b1-3)GalNAc
In short: as §1

[34] = biological target: Fuc(a1-2)Gal(b1-4)GlcNAc(b1-3)[Fuc(a1-2)Gal(b1-4)GlcNAc(b1-6)]GalNAc
In short: as §1

[35] = biological target: Fuc(a1-2)Gal(b1-4)GlcNAc(b1-3)[Fuc(a1-3)[Gal(b1-4)]GlcNAc(b1-6)]Gal(b1-4)Glc
In short: as §1

[36] = biological target: Fuc(a1-2)Gal(b1-4)GlcNAc(b1-6)GalNAc
In short: as §1

[37] = biological target: Fuc(a1-2)Gal(b1-4)GlcNAc6S
In short: as §1

[38] = biological target: Fuc(a1-2)Gal(b1-4)[Fuc(a1-3)]GlcNAc
In short: as §1

[39] = biological target: Fuc(a1-2)Gal(b1-4)[Fuc(a1-3)]GlcNAc(b1-2)Man(a1-3)[Fuc(a1-2)Gal(b1-4)[Fuc(a1-3)]GlcNAc(b1-2)Man(a1-6)]Man(b1-4)GlcNAc(b1-4)[Fuc(a1-6)]GlcNAc
In short: as §1

[40] = biological target: Fuc(a1-2)Gal(b1-4)[Fuc(a1-3)]GlcNAc(b1-2)[Fuc(a1-2)Gal(b1-4)[Fuc(a1-3)]GlcNAc(b1-4)]Man(a1-3)[Fuc(a1-2)Gal(b1-4)[Fuc(a1-3)]GlcNAc(b1-2)Man(a1-6)]Man(b1-4)GlcNAc(b1-4)GlcNAc
In short: as §1

[41] = biological target: Fuc(a1-2)Gal(b1-4)[Fuc(a1-3)]GlcNAc(b1-3)Gal(b1-4)[Fuc(a1-3)]GlcNAc
In short: as §1

[42] = biological target: Fuc(a1-2)Gal(b1-4)[Fuc(a1-3)]GlcNAc(b1-3)Gal(b1-4)[Fuc(a1-3)]GlcNAc(b1-3)Gal(b1-4)[Fuc(a1-3)]GlcNAc
In short: as §1

[43] = biological target: Fuc(a1-2)Gal(b1-4)[Fuc(a1-3)]GlcNAc(b1-3)GalNAc
In short: as §1

[44] = biological target: Fuc(a1-2)Gal(b1-4)[Fuc(a1-3)]GlcNAc(b1-3)[Neu5Ac(a2-6)Gal(b1-4)GlcNAc(b1-6)]Gal(b1-4)Glc
In short: as §1

[45] = biological target: Fuc(a1-2)Gal3S(b1-4)GlcNAc
In short: as §1

B1: BTL (Bryothamnion triquetrum) (protein)
chain: ADPICGSSGYSCTTPAILTPKSPGSFPSGYSKVIVTGVGGSYSVYIHRPDGFKVYKASEGGCASFGSYSGGGNSEVGKYGSGGTVVAVACK
- glycan array binding signal (z-score) [1]: -0.28
- glycan array binding signal (z-score) [2]: -0.254
- glycan array binding signal (z-score) [3]: -0.213
- glycan array binding signal (z-score) [4]: -0.275
- glycan array binding signal (z-score) [5]: -0.248
- glycan array binding signal (z-score) [6]: -0.262
- glycan array binding signal (z-score) [7]: -0.198
- glycan array binding signal (z-score) [8]: -0.254
- glycan array binding signal (z-score) [9]: -0.058
- glycan array binding signal (z-score) [10]: 2.75
- glycan array binding signal (z-score) [11]: -0.25
- glycan array binding signal (z-score) [12]: -0.189
- glycan array binding signal (z-score) [13]: -0.142
- glycan array binding signal (z-score) [14]: -0.245
- glycan array binding signal (z-score) [15]: -0.264
- glycan array binding signal (z-score) [16]: -0.245
- glycan array binding signal (z-score) [17]: -0.245
- glycan array binding signal (z-score) [18]: -0.149
- glycan array binding signal (z-score) [19]: 1.51
- glycan array binding signal (z-score) [20]: -0.244
- glycan array binding signal (z-score) [21]: -0.232
- glycan array binding signal (z-score) [22]: -0.072
- glycan array binding signal (z-score) [23]: -0.245
- glycan array binding signal (z-score) [24]: -0.29
- glycan array binding signal (z-score) [25]: -0.213
- glycan array binding signal (z-score) [26]: -0.236
- glycan array binding signal (z-score) [27]: -0.133
- glycan array binding signal (z-score) [28]: 1.79
- glycan array binding signal (z-score) [29]: -0.263
- glycan array binding signal (z-score) [30]: -0.285
- glycan array binding signal (z-score) [31]: -0.109
- glycan array binding signal (z-score) [32]: -0.184
- glycan array binding signal (z-score) [33]: -0.164
- glycan array binding signal (z-score) [34]: -0.148
- glycan array binding signal (z-score) [35]: -0.269
- glycan array binding signal (z-score) [36]: -0.024
- glycan array binding signal (z-score) [37]: -0.258
- glycan array binding signal (z-score) [38]: -0.249
- glycan array binding signal (z-score) [39]: 3.9
- glycan array binding signal (z-score) [40]: -0.055
- glycan array binding signal (z-score) [41]: -0.23
- glycan array binding signal (z-score) [42]: -0.264
- glycan array binding signal (z-score) [43]: -0.197
- glycan array binding signal (z-score) [44]: -0.219
- glycan array binding signal (z-score) [45]: -0.256
